Measured values taken from patent US20260008848A1, “ANTI-NECTIN-4 ANTIBODY, AND ANTIBODY-DRUG CONJUGATE AND USE THEREOF” (Bio-Thera Solutions, Ltd., priority 2022, published 2026).

Assays:
[1] = biological target: T1, human Nectin-4 extracellular antigen (Nectin-4-His) (Homo sapiens, UniProt Q96NY8); test: Affinity measurement by BLI (Octet QKe, Protein A biosensor); format: binding
T1 construct: albumin signal peptide (replaces the native Nectin-4 signal peptide) (N); made in house
T1 sequence (Q96NY8 with tags, fused parts or gaps): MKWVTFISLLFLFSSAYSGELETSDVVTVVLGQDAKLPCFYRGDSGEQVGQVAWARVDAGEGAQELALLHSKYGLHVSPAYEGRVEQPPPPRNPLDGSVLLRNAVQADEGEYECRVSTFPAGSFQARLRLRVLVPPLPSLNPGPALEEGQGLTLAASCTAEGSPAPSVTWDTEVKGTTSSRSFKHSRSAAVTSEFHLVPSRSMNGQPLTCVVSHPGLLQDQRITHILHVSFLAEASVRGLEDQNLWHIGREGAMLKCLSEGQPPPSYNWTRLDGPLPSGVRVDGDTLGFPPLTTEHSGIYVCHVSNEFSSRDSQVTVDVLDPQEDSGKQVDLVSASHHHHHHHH
Description: The affinity of candidate antibodies (ASG-22 and ASG-AM) for the human Nectin-4 extracellular antigen was detected using the bio-layer interferometry (BLI) technology on the Octet platform (Fortebio, Octet QKe).
Antibodies were loaded onto a Protein A biosensor (Fortebio, 18-5010) at a concentration of 20 μg/mL with a loading time of 60 s. Nectin-4-His antigen concentrations were set at 200 nM, 100 nM, 50 nM, 25 nM, and 0 nM. The antigen association time was 180 s, and the dissociation time was 200 s. Data were then processed and analyzed using Acquisition 8.2 to give affinity constants (see Table 4).

[2] = biological target: T1, human Nectin-4 extracellular antigen (Nectin-4-His); test: Affinity measurement by SPR (BIAcore T200, Protein A chip capture); format: binding
Description: The candidate antibodies (ASG-22 and ASG-AM) were analyzed for their affinity for the human Nectin-4 extracellular antigen using surface plasmon resonance (SPR) technology (BIAcore: GE Healthcare, T200).
The capture was conducted on a Protein A chip (Cat #29127556, GE Healthcare): Antibody dilutions ([…]) were directed through the experimental flow channels (Fc2 and Fc4) at a flow rate of 10 μL/min for 10 s. Then antigen Nectin-4-His (prepared from Example 1) dilutions at different concentrations (0 nM, 1.23 nM, 3.7 nM, 11.1 nM, 33.3 nM, and 100 nM) were sequentially introduced with the flow rate adjusted to 30 μL/min through the surfaces of the experimental flow channels (Fc2 and Fc4) and reference flow channels (Fc1 and Fc3) with 120 s of association and 180 s of dissociation. Finally, the chip regenerated in Glycine 1.5. Fitting and analysis were performed using BiaEvaluation 3.2, with a 1:1 model for the fitting.

T-47D cells [3] = test: Endocytosis assay by FACS (antibody remaining on cell surface); format: cell-based, human; conditions: 10 μg/mL antibody
Description: The relative quantity of antibodies remaining on the cell surface after incubation at 37° C. for a certain period was detected by FACS to reflect the efficiency of endocytosis. The method is briefly described as follows: T-47D cells (human ductal breast carcinoma cells, sourced from the Cell Bank of the Chinese Academy of Sciences, Cat. No.: TCHu 87) were used. Each test antibody was adjusted to a concentration of 10 μg/mL and co-incubated with cells (at a density of 0.5×10^6 cells/mL) on ice for 1 h for binding. The cells were washed thrice with pre-cooled PBS and then incubated at 37° C. for 0 h, 2 h, and 4 h. The endocytosis reaction was terminated with 0.2% N3Na, and the cells were washed thrice with PBS. Subsequently, a PE-labeled anti-human Fc secondary antibody (Invitrogen 12-4998-82) was added, and the cells were incubated at 4° C. for 30 min. The red fluorescence signal was detected by a flow cytometer.

T-47D cells [4] = test: Binding of antibody to T-47D cells by FACS; parameters: species or system human; conditions: 3-fold dilutions from 100 nM, 4° C.
Description: The binding activity of antibody ASG-AM to T-47D cells (human ductal breast carcinoma cells, sourced from the Cell Bank of the Chinese Academy of Sciences, Cat. No.: TCHu 87) was detected by FACS and compared with that of the reference antibody ASG-22. The EC50 of the binding of candidate antibodies to the cells was analyzed using the four-parameter method. The method is briefly described as follows: T-47D cells were digested with pancreatin. Each candidate antibody was serially 3-fold diluted from 100 nM and co-incubated with T-47D cells at 4° C. for 0.5-1 h. Subsequently, a PE-labeled anti-human Fc secondary antibody (Invitrogen, 12-4998-82) was added. The signal intensity of the red fluorescence was detected by a flow cytometer. Graphpad Prism was used for plotting and calculating the EC50.

- Rmax [1]: 0.6488
- affinity compared with the reference antibody ASG-22 [1]: significantly improved affinity
- kdis [1]: 2.38e-05 s⁻¹
- kon [1]: 89600 M⁻¹ s⁻¹
- affinity as compared with the reference antibody ASG-22 [2]: significant increase in affinity
- Ka ([2]; 1:1 model fit): 298000 M⁻¹ s⁻¹
- Rmax ([2]; 1:1 model fit): 197.9 RU
- Kd ([2]; 1:1 model fit, dissociation rate): 0.000535 s⁻¹
B1: ASG-AM: anti-Nectin-4 antibody; heavy chain SEQ ID NO: 12, light chain SEQ ID NO: 14 (antibody)
heavy: EVQLVESGGGLVQPGGSLRLSCAASGFTFSSYNMNWVRQAPGKGLEWVSYISSSSSTIYYADSVKGRFTISRDNAKNSLSLQMNSLRDEDTAVYYCARAYYYGMDVWGQGTLVTVSS[human IgG1 constant region not spelt out]
light: DIQMTQSPSSVSASVGDRVTITCRASQGISGWLAWYQQKPGKAPKFLIYAASTLQSGVPSRFSGSGSGTDFTLTISSLQPEDFATYYCQQAGPGWVFGQGTKVEIKRTVAAPSVFIFPPSDEQLKSGTASVVCLLNNFYPREAKVQWKVDNALQSGNSQESVTEQDSKDSTYSLSSTLTLSKADYEKHKVYACEVTHQGLSSPVTKSFNRGEC
- red fluorescence signal at 0 h (T-47D cells [3]; 37° C. for 0 h): 23561.0
- Endocytosis at 2 h (T-47D cells [3]; 37° C. for 2 h): 45.98%
- red fluorescence signal at 2 h (T-47D cells [3]; 37° C. for 2 h): 12727.3
- Endocytosis at 4 h (T-47D cells [3]; 37° C. for 4 h): 79.46%
- red fluorescence signal at 4 h (T-47D cells [3]; 37° C. for 4 h): 4840
- binding curves to T-47D cells (T-47D cells [4]): substantially consistent
